Sequences and labels used below:
B1: LINE1-mini (parent)
chain: GGCAGAGCUCAACACAGCGUGGCAAAGUGGCUGUGGCUAGACUGCC

The source gives no read counts; variants with many changes may rest on few reads.

In this series the parent is B1. Description: self-cleavage, relative activity (ratio to wild type); higher = more cleavage; in vitro, sequencing; the parent is a self-cleaving ribozyme.
Consider A6C C8U C42U, for which the self-cleavage worked out at 0.26.

As for A6G U34G C42U, the self-cleavage stood at 0.

Consider A6C G7U A39U A41G, for which the self-cleavage was 0.51.

Regarding A6G G17U G19U, the self-cleavage worked out at 0.02.

A6G A12U A24C U38G C42A: the self-cleavage was 0.01.

For A6G A12G A26C, the self-cleavage stood at 0.

A6G A12C C45A: the self-cleavage is 0.03.

Consider A6C C31A G33U, for which the self-cleavage was 0.03.

Take A6G G29C U32A G36A C37A C46A: the self-cleavage was 0.07.

Turning to A6C A14G G21A G29U G30C, the self-cleavage was 0.01.

With A6C A12C C23A A41G, the self-cleavage stood at 0.02.

Take A6G C18A G22U: the self-cleavage came out at 0.15.

For A6C C8A G19C, the self-cleavage worked out at 0.13.

For the variant A6C C10U C23U, the self-cleavage came to 0.07.

In the case of A6U A11C G36C, the self-cleavage was 0.04.

A6C A12G U20C G29A U38G: the self-cleavage was found to be 0.

As to A6C G36A C42G, the self-cleavage was 0.01.

Regarding A6C A11U C13U U34C C46U, the self-cleavage was determined as 0.03.

On to A6C C31A C42A C45U, for which the self-cleavage was 0.01.

On to A6C C8A G44C, for which the self-cleavage turned out to be 0.09.

For A6G G19A G44A C46A, the self-cleavage worked out at 0.15.

In the case of A6G A11U G36C, the self-cleavage was determined as 0.02.

In the case of A6G A11C G17U G33A U34A, the self-cleavage worked out at 0.01.

Take A6C G27A U28A U32G C45U: the self-cleavage is 0.01.

With A6C A16C G30U, the self-cleavage was 0.01.

Regarding A6G U20C A26C, the self-cleavage was 0.

With A6C G21U A26G G29C C45G, the self-cleavage amounted to 0.03.

As to A6C U9C G40C C42A G44A C45G, the self-cleavage is 0.

Consider A6C G19A G44C, for which the self-cleavage was 0.16.

For the variant A6G C13U C23G U32A C37G C42U, the self-cleavage came to 0.13.

Turning to A6G G7U C10G G17A, the self-cleavage was 0.03.

Turning to A6C A12G G40C, the self-cleavage turned out to be 0.04.

As for A6C A16U G19C U43C, the self-cleavage came out at 0.05.

With A6C A11G C15A G36A C46A, the self-cleavage is 0.01.

Take A6C A11U U34C C45A: the self-cleavage worked out at 0.02.

As to A6C U9C C10U U34C C37A, the self-cleavage is 0.

Consider A6C A14U C18U U32A U38A, for which the self-cleavage is 0.18.

Take A6C C8U G36U C37U U38A: the self-cleavage is 0.01.

Regarding A6C C13A A14G G17A A39G, the self-cleavage worked out at 0.08.

As to A6C G22C G44U C45G C46A, the self-cleavage was 0.

On to A6C C23U G30A, for which the self-cleavage was determined as 0.8.

As for A6C G19U C31U U32C C45G, the self-cleavage stood at 0.08.

Take A6C C8U U9G C13U G21A C46U: the self-cleavage came to 0.01.

In the case of A6C C13G G17A C23G A39G G44U, the self-cleavage worked out at 0.02.

With A6G C10G A11C C15G G30A G36A, the self-cleavage amounted to 0.01.

Regarding A6G A11C G19U A25C, the self-cleavage was determined as 0.03.

As to A6G G7C G30U G33C G36C, the self-cleavage is 0.04.

A6G U9G C42A: the self-cleavage came out at 0.1.

As to A6G A16C G21U, the self-cleavage turned out to be 0.02.

Regarding A6G A41G C46A, the self-cleavage stood at 0.11.

For the variant A6G C37G U38G, the self-cleavage amounted to 0.01.

For the variant A6C G17A U34C G40U, the self-cleavage stood at 0.12.

Regarding A6G C10G U20A G29A U38C, the self-cleavage came to 0.01.

A6G C8U G40U: the self-cleavage worked out at 0.04.

Turning to A6G U20G A39C C46A, the self-cleavage was found to be 0.

On to A6C U20A U28C G29C, for which the self-cleavage worked out at 0.42.

Regarding A6G C13U U20G, the self-cleavage is 0.61.

As to A6G A12C C15U U28G G30A C42A U43A C46A, the self-cleavage turned out to be 0.01.

As for A6G G17U G44A, the self-cleavage stood at 0.39.

A6G A11U G33U: the self-cleavage turned out to be 0.

As to A6G C10U A26G U28C, the self-cleavage amounted to 0.01.

For A6G A12C U20A, the self-cleavage was found to be 0.

For A6G C10G C13G U20A G29A, the self-cleavage came to 0.01.

As for A6G G40U C42U, the self-cleavage is 0.02.

With A6G A24U G33C, the self-cleavage was 0.01.

On to A6C C8G C10A G44A, for which the self-cleavage was 0.03.

Consider A6G G19U U28A G33C, for which the self-cleavage was found to be 0.03.

Regarding A6C U38C C42A, the self-cleavage was found to be 0.05.

For the variant A6C C13A G19A G22C, the self-cleavage came out at 0.27.

As for A6G U28C C37U, the self-cleavage amounted to 0.03.

On to A6G G35C C45A, for which the self-cleavage stood at 0.03.

A6G G7U C18A G19A G22U U32A A41U: the self-cleavage was 0.11.

As to A6C G7A G21C G30U, the self-cleavage amounted to 0.05.

Take A6G G27C U34G: the self-cleavage came to 0.04.

Consider A6C A16G G22U A26C G29U C46G, for which the self-cleavage turned out to be 0.07.

On to A6C C37G C42U, for which the self-cleavage is 0.11.

Take A6G A16C G33C C37U: the self-cleavage stood at 0.01.

For the variant A6C C37A A39U, the self-cleavage is 0.08.

On to A6C G19U G40U, for which the self-cleavage is 0.05.

With A6G A16U U34G, the self-cleavage is 0.04.

With A6C A12C G19U G35U G36U, the self-cleavage came out at 0.01.

For the variant A6C G22A C23A A24G G35U, the self-cleavage came out at 0.06.

Turning to A6G G29A G36A U43C G44C, the self-cleavage was determined as 0.12.

Turning to A6C C23A A26G, the self-cleavage was found to be 0.15.

Regarding A6C G19C G33A, the self-cleavage came out at 0.1.

For A6G G7U A14U, the self-cleavage was determined as 0.09.

Regarding A6G A11C G17A U20A U43G, the self-cleavage is 0.

Take A6C G7C A14C C31G: the self-cleavage is 0.

For A6G C8G A25C G29U G44U, the self-cleavage stood at 0.06.

With A6C C15A U20G G33U A39G, the self-cleavage was 0.04.

With A6C G27C G30U C37U, the self-cleavage turned out to be 0.

A6C C10G A25U C37U G40U: the self-cleavage came to 0.

In the case of A6C G7A A12C G21A G40A C46A, the self-cleavage worked out at 0.01.

For A6G A25G G40A G44U, the self-cleavage was determined as 0.03.

On to A6U A11G A12U U28A U34C, for which the self-cleavage amounted to 0.02.

As for A6G G36A A39C, the self-cleavage came to 0.2.

A6G C31U G40U: the self-cleavage came to 0.03.

Regarding A6G G21C G29U, the self-cleavage came out at 0.03.

In the case of A6G G35A A39U A41U C46A, the self-cleavage amounted to 0.06.

With A6G G21C A41U, the self-cleavage turned out to be 0.02.

A6C C18U C23A G27A U28G C37G: the self-cleavage came to 0.02.

Regarding A6G G22A C45A, the self-cleavage was 0.01.

As for A6G G17C C31G, the self-cleavage was found to be 0.

Regarding A6C A14C G17U A41G, the self-cleavage turned out to be 0.06.

On to A6G U9A G22C U38C A41C, for which the self-cleavage was 0.01.

As to A6C G17C C18G C31A, the self-cleavage was 0.04.

As for A6C A14U U20A A24U A25U G27C, the self-cleavage was 0.38.

A6G G22C G27C G35U: the self-cleavage turned out to be 0.04.

Regarding A6G C8G C23U, the self-cleavage was 0.09.

Take A6G U34G G44A: the self-cleavage amounted to 0.02.

For A6C G27A C31A, the self-cleavage amounted to 0.22.

With A6C C10A G19C G35U, the self-cleavage came out at 0.04.

Consider A6G G30U C31A, for which the self-cleavage worked out at 0.03.

For the variant A6G U9C G19A, the self-cleavage was 0.02.

For A6C G19U U20G G29U C37G C46A, the self-cleavage was determined as 0.

On to A6G G21U A24G C37G, for which the self-cleavage was determined as 0.76.

Turning to A6G A11C G35A C46U, the self-cleavage is 0.

Regarding A6C U20A G22A A25U, the self-cleavage came out at 0.63.

Consider A6G A11G G19C, for which the self-cleavage turned out to be 0.02.

A6G A14U C18A: the self-cleavage turned out to be 0.02.

For A6C G7A U20G C42U, the self-cleavage is 0.06.

For the variant A6C A11G G27A U38C, the self-cleavage was found to be 0.03.

A6G G17U G35A C46G: the self-cleavage amounted to 0.02.

In the case of A6G A26G G33C U34G G40C C42U, the self-cleavage amounted to 0.03.

As to A6C G7A C10G C37G, the self-cleavage turned out to be 0.02.

For A6C G21C G29U A39U G40U C42G, the self-cleavage came out at 0.01.

As for A6C A26U C46U, the self-cleavage worked out at 0.31.

As for A6G A11C C15G U20C G44A, the self-cleavage is 0.01.

Consider A6G C15A G22A A25U, for which the self-cleavage came out at 0.08.

Turning to A6C G21U A25U, the self-cleavage came to 0.14.

As for A6G A12U G27U C31U U43C C46A, the self-cleavage turned out to be 0.03.

For the variant A6C A12U A25C C45U, the self-cleavage came to 0.06.

As to A6G C8G U9C G22A G36A C37A G40C, the self-cleavage was found to be 0.01.

On to A6C G7C U9C U20A A25C, for which the self-cleavage is 0.01.

As to A6G C23A G27C, the self-cleavage was 0.03.

With A6C C23G G30C G40C, the self-cleavage stood at 0.02.

With A6C G33C C46G, the self-cleavage was found to be 0.04.

Turning to A6C G21U C37U, the self-cleavage amounted to 0.04.

Consider A6G U9G C23A C37G G40U G44U, for which the self-cleavage worked out at 0.05.

In the case of A6G G30U C37A C45G, the self-cleavage was found to be 0.02.

In the case of A6G A24C G30C A41U, the self-cleavage worked out at 0.06.

In the case of A6C C10U G19C G30A A39U, the self-cleavage was determined as 0.28.

For A6G C10A C23G U32G G36U C45U, the self-cleavage is 0.01.

Take A6C C13U C31G C37U: the self-cleavage was determined as 0.04.

In the case of A6G C37U C46G, the self-cleavage was 0.05.

As for A6C C10A A14U G22A C31A G44U, the self-cleavage is 0.01.

Turning to A6C C8A A11C, the self-cleavage was determined as 0.04.

In the case of A6C C8A U20C U28A G33A G36C A39U, the self-cleavage came out at 0.14.

A6G C8U G17U G36U: the self-cleavage is 0.03.

Turning to A6C A11U A16U C37A, the self-cleavage came to 0.02.

A6C C8U U28A G36C G40C C45A: the self-cleavage came out at 0.04.

With A6C G22U G40U, the self-cleavage worked out at 0.12.

With A6G A16C A39G G44U, the self-cleavage amounted to 0.01.

As for A6G U28C U43C, the self-cleavage was determined as 0.06.

In the case of A6G C10U G30U, the self-cleavage was 0.04.

Turning to A6G C10U G35A, the self-cleavage worked out at 0.04.

Consider A6C U20A A25U, for which the self-cleavage was found to be 0.38.

Consider A6G G30A G33A C46A, for which the self-cleavage turned out to be 0.04.

A6C C15A U28A: the self-cleavage stood at 0.02.

On to A6G C8U A16G G19C G22A U28A A39U U43G, for which the self-cleavage is 0.01.

Consider A6G U28C C42U U43C, for which the self-cleavage was found to be 0.03.

For the variant A6C U28C C45G, the self-cleavage was found to be 0.14.

As to A6C C10A G19U G30U G40C, the self-cleavage is 0.03.

On to A6G U34C C46A, for which the self-cleavage amounted to 0.04.

A6U A11C G40A: the self-cleavage was 0.02.

A6G G7U A14C C15U C23A C42U: the self-cleavage amounted to 0.12.

Regarding A6C C10A A39U, the self-cleavage came out at 0.12.

(Values after the RNAGym collection of RNA variant scans (doi:10.7554/elife.90254).)
